# Reference: PubChem BioAssay (Tox21)
# Values joined by “and” are separate entries in the source; they are usually repeats but may differ in a detail not shown here. Equal entries are not always repeated. Inconclusive results, whose numbers are uncertain, are shown with a selection of clear calls. Where the call is inconclusive, the potency comes from a doubtful curve fit. Active and inactive are the calls of the source. Calls follow the shape of the dose curve; as a rule, active = well fitted cell-killing curve with a large enough effect in the repeat runs; inconclusive = weak or mixed curves; inactive = no such curve, though single readings can be large or run the other way.
# Experiment: qHTS assay for identifying genotoxic compounds that show differential cytotoxicity against isogenic chicken DT40 cell lines with known DNA damage response pathways - Rad54/Ku70 mutant cell line (AID 743015); also: nearly all actives have a fitted effect of over 60% in size
# Conditions: DT40 Rad54/Ku70 mutant viability, CellTiter-Glo, 40 h; activity change, negative = cytotoxicity: at 66.8 µM (top of the series)
# Potency is read from the fitted curve at half-maximal effect; tags tell the direction and shape of the fitted curve.
row,SMILES,Potency
1,Cc1cc(OC(=O)N(C)C)nn1C(=O)N(C)C,inactive
2,COC1=CC(=O)O[C@@H](CCc2ccccc2)C1,"inconclusive: 80.1 µM [cytotoxic, partial curve, poor fit]"
3,Brc1ccc(Oc2ccccc2)cc1,"inconclusive: 70.3 µM [cytotoxic, single point] and inconclusive: 68.6 µM [cytotoxic, single point]"
4,O=S(=O)(Oc1ccc(Cl)cc1)c1ccc(Cl)cc1,"inconclusive: 69.5 µM [cytotoxic, single point]"
5,CCC(C)(c1ccc(O)cc1)c1ccc(O)cc1,"inconclusive: 68.5 µM [cytotoxic, single point]"
6,CC(C)NC(=O)N1CC(=O)N(c2cc(Cl)cc(Cl)c2)C1=O,"inconclusive: 68.6 µM [cytotoxic, single point]"
7,CCCCC(CC)COC(=O)c1ccccc1C(=O)OCC(CC)CCCC (centres undefined),inactive
8,CCCN(CCC)CCc1c[nH]c2ccccc12,"inconclusive: 67.7 µM [cytotoxic, single point]"
9,CC1(C)CC(=O)CC(C)(C)N1[O],"inconclusive: 6.11 µM [rising, partial curve, poor fit]"
10,O=S(=O)(O)C(F)(F)C(F)(F)C(F)(F)C(F)(F)C(F)(F)C(F)(F)F,inactive
11,NNC(N)=S,"inconclusive: 68.6 µM [cytotoxic, single point]"
12,BrC(Br)Br,inactive
13,[CH3][Sn]([CH3])([Cl])[Cl],"inconclusive: 69.7 µM [cytotoxic, single point] and active: 48.6 µM"

# Experiment: qHTS assay to identify small molecule antagonists of the androgen receptor (AR) signaling pathway - cell viability counter screen (AID 743033; also: nearly all actives have a fitted effect of over 45% in size)
# Conditions: AR-bla HEK293 viability, CellTiter-Glo luminescence, 16 h; activity change, negative = cytotoxicity: at 58.5 µM (top of the series)
row,SMILES,Potency
1,CCc1cccc(CC)c1N(COC)C(=O)CCl,inactive
2,Brc1ccc(Oc2ccccc2)cc1,"inconclusive: 63.2 µM [cytotoxic, single point]"
3,O=S(=O)(Oc1ccc(Cl)cc1)c1ccc(Cl)cc1,"inconclusive: 49.6 µM [cytotoxic, partial curve, poor fit]"
4,CCC(C)(c1ccc(O)cc1)c1ccc(O)cc1,"inconclusive: 43.6 µM [cytotoxic, partial curve]"
5,O=S(=O)(O)C(F)(F)C(F)(F)C(F)(F)C(F)(F)C(F)(F)C(F)(F)F,inactive
6,C=C(Cl)CSC(=S)N(CC)CC,inactive
7,COc1ccccc1OC,inactive
8,NNC(N)=S,active: 14.3 µM
9,CCOc1ccc(C(C)(C)COCc2cccc(Oc3ccccc3)c2)cc1,inactive
10,[CH3][Sn]([CH3])([Cl])[Cl],"inconclusive: 55.9 µM [cytotoxic, single point]"
11,NCCCNCCCN,active: 49.7 µM
